# About 2,200 (0.71%) of roughly 310,000 compounds showed an effect of 50% or more. The effect is printed as a negative number. Some of the results follow.
# Molecular target: human ether-à-go-go-related gene (hERG) potassium channel (human, UniProt Q12809)
# Experiment: primary screen, population patch clamp on CHO cells stably expressing hERG
# human ether-à-go-go-related gene (hERG) potassium channel, sequence (Q12809 whole entry, looked up): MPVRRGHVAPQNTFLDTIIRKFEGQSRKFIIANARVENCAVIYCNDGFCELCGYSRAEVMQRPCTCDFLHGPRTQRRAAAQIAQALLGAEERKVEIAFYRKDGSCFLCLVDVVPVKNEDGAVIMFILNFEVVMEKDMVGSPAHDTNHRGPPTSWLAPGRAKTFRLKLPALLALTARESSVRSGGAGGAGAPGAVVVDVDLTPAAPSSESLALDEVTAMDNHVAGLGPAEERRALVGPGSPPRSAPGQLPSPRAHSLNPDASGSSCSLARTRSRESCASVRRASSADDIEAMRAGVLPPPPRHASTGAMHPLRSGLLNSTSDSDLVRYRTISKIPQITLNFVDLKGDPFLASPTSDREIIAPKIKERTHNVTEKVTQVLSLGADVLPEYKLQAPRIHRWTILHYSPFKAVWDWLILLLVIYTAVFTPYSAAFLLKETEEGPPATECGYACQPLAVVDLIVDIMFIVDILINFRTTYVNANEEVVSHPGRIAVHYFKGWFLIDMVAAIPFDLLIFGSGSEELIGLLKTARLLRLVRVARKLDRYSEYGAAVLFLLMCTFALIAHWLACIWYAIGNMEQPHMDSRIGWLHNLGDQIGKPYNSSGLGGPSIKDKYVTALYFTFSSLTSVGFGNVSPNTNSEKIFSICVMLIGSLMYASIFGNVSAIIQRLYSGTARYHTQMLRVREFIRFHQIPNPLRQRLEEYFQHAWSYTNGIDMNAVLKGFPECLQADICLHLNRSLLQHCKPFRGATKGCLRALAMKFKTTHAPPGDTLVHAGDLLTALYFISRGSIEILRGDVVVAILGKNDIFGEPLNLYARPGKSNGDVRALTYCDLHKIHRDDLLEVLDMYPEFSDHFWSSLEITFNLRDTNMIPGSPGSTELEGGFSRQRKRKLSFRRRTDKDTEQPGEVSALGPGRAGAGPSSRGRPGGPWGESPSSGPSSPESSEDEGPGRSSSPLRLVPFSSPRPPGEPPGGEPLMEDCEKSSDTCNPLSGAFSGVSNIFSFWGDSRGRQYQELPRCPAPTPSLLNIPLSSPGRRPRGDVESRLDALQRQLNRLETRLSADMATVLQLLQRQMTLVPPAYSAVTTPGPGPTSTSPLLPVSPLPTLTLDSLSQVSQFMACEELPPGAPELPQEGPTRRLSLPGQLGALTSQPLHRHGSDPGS
row,SMILES,"hERG current change (%, negative = inhibition) at 1uM"
1,COC(=O)CCNC(=O)c1ccc2nc(Cc3ccc(OC)cc3)oc2c1,13.8%
2,COc1cccc(NC(=O)CN(C)C(=O)c2ccccc2Sc2ccccc2C#N)c1,8.02%
3,COc1cccc(CNC(=O)c2ccc(NC(=O)CC3SC(N4CCCC4)=NC3=O)cc2)c1 (stereo not shown),5.77%
4,CCn1cc(/C=C2/SC(=S)NC2=O)c(C)n1,10.5%
5,COc1ccc(/C=N/NC(=O)c2ccc(Cn3cc([N+](=O)[O-])cn3)o2)cc1O,15.8%
6,CCOc1ccc(N2C(=O)CC(S/C(N)=N/N=C/c3cccs3)C2=O)cc1 (stereo not shown),15.4%
7,CC(C)Oc1cccc(C(=O)NC(=S)N2CCN(c3ccc(C(F)(F)F)cc3[N+](=O)[O-])CC2)c1,-1.55%
8,CCOC(=O)Nc1nc(C)c(C(=O)N(C)C)s1,-1.49%
9,CN(C)S(=O)(=O)NC(c1ccccc1)c1ccccc1,-3.03%
10,CCOC(=O)CNC(=O)c1sc(NC(=O)c2cccc(F)c2)nc1C,10.9%
11,CCOc1ccc(CCNC(=O)c2nnc(Cc3ccc(F)cc3)o2)cc1OCC,7.75%
12,FC(F)(F)COc1ccc(-c2nnc(SCc3c(Cl)cccc3Cl)o2)cn1,15.4%
13,CC1CN(c2ccc(S(=O)(=O)N3CCCC3)cn2)CC(C)O1 (stereo not shown),14.3%
14,O=C(Nc1ccc(N2CCOCC2)c(S(=O)(=O)Nc2ccccc2Cl)c1)c1ccccc1,10.4%
15,CCN1CC=C2C(C#N)=C(N)C(C#N)(C#N)[C@H](c3ccoc3)[C@H]2C1,7.74%
16,O=c1cnnc(N/N=C/c2c[nH]c3ccccc23)[nH]1,12.2%
17,CCCc1cc(C(N)=O)c(NC(=O)c2cc(C)on2)s1,0.905%
18,CCc1nnc(NC(=O)CCS(=O)(=O)c2ccc(C)cc2)s1,17.4%
19,CSc1nc2ccc(S(=O)(=O)Nc3c(C)n(C)n(-c4ccccc4)c3=O)cc2s1,12.2%
20,N#CCSc1nnc(COc2cccc3ccccc23)n1-c1cccc(Cl)c1,9.52%
21,CC(C)CC(=O)Nc1ccc(N2CCN(C(=O)c3cccs3)CC2)cc1,17.7%
22,O=C(CS(=O)(=O)c1ccccc1)Nc1nc(-c2ccccc2)cs1,-11.5%

row,SMILES,"hERG current change (%, negative = inhibition) at 1uM"
1,COc1cccc(C(=O)Nc2cccc3ccccc23)c1OC,12.5%
2,O=C(Cn1cnc(S(=O)(=O)N2CCCC2)c1)Nc1cccc(Br)c1,22.2%
3,COCCCNc1nc2ccccc2nc1NS(=O)(=O)c1cccs1,15.1%
4,Cc1cc(C(=O)N2CCCC(Nc3ccccc3)C2)c2ccc(F)cc2n1 (stereo not shown),13.3%
5,CCc1c(C)n([O-])c2c([n+]1=O)CCC2,12.1%
6,C/C(=N/NC(=O)c1cnccn1)c1ccncc1,6.15%
7,COc1cc(Cl)c(CN2CCC(CO)(CCOc3ccccc3)CC2)cc1OC,-85.1%
8,Cc1cc(NS(=O)(=O)c2ccc(-c3ccccc3)cc2)no1,8.87%
9,CN(C)S(=O)(=O)c1ccc(S(=O)(=O)NCc2cccs2)cc1,9.01%
10,Cc1ccc(N2CC(c3nc4ccccc4n3C)CC2=O)cc1C (stereo not shown),5.47%
11,O=C(Nc1ccc2c(c1)CCC2)c1ccc(F)cc1,13.8%
12,Cc1noc(C)c1S(=O)(=O)Nc1ccccc1Oc1ccccc1,12.2%
13,COc1cc(OC)cc(C(=O)OC/C(O)=C(\C#N)c2nc3ccccc3[nH]2)c1,-0.646%
14,Cc1c(C=O)c(=O)n(-c2ccccc2)n1-c1ccccc1,13%
15,Cc1ncc(CO)c(/C=N/NC(=S)Nc2cccc(Cl)c2)c1O,14.8%
16,CC1=C(C(=O)Nc2cc(C(=O)N3CCN(c4cccc(C)c4)C(C)C3)ccc2C)SCCO1 (stereo not shown),11.3%
17,COC(=O)c1ccccc1Oc1nc(Cl)cc(OC)n1,7.09%
18,Cn1ncc(Cl)c1C(=O)Nc1ccc2c(c1)OCO2,18.1%
19,Cc1ccc(CCNC(=O)Cc2ccc(NC3=NC4CS(=O)(=O)CC4S3)cc2)cc1 (stereo not shown),12.3%
20,Cc1cccc(-c2nnc(SCC(=O)Nc3cccc(C(=O)N4CCOCC4)c3)n2C)c1,1.11%
21,Cc1cccc(C(=O)OCC(=O)Nc2c(C)nn(-c3ccccc3)c2C)c1O,12.1%

# Source: paper PMC4336329 (PLoS ONE, 2015)
